Source: the antibiotic and cytotoxicity screens of Wong et al. (2023)
The list shows a part of the results.

Each compound was assayed on HSkMC (human skeletal muscle cells) (assay: cytotoxicity call (relative viability < 0.9)). Conditions: 10 µM.

Row | Compound | cytotoxicity call
1 | C=CC[C@H](CC(=O)NCCO)C(=O)NC[C@@H](OC(=O)[C@H](CC=C)CC(=O)OC(C)(C)C)c1ccccc1 | inactive
2 | CCO[C@@H]1OC(C(=O)N2CCN(Cc3ccc4c(c3)OCO4)CC2)=C[C@H](c2ccc(C(F)(F)F)cc2)[C@H]1CCCOC(=O)NCCCCCC(=O)NO | inactive
3 | COc1ccc(C2=CCCC2)cc1 | inactive
4 | C[C@@H]1CCCCO[C@@H](CN(C)CC2CCCCC2)[C@H](C)CN([C@@H](C)CO)C(=O)c2cc(NC(=O)CCCCCC(=O)Nc3ccccc3N)ccc2O1 | inactive
5 | O=c1ccoc2cc(O)c([C@H]3O[C@H](CO)[C@@H](O)[C@H](O)[C@@H]3O)c(O)c12 | inactive
6 | Cc1ccc(S(=O)(=O)Nc2ccc3c(c2)C(=O)N([C@H](C)CO)C[C@H](C)[C@H](CN(C)S(=O)(=O)c2c(C)noc2C)O3)cc1 | inactive
7 | COCC(=O)N[C@@H]1C=C[C@H](CC(=O)N2CCCCC2)O[C@@H]1CO | inactive
8 | C[C@H](CO)N1C[C@H](C)[C@H](CN(C)C(=O)CN2CCOCC2)Oc2cc(/C=C/c3ccccc3)ccc2S1(=O)=O | inactive
9 | CC(C)NC(=O)Nc1ccc2c(c1)CC(=O)N([C@@H](C)CO)C[C@@H](C)[C@@H](CN(C)Cc1ccc3c(c1)OCO3)O2 | inactive
10 | COc1ccc(S(=O)(=O)Nc2cccc3c2O[C@@H](CN(C)C(=O)Nc2c(C)noc2C)[C@@H](C)CN([C@H](C)CO)C3=O)cc1 | inactive
11 | COc1ccc(CN(C)C[C@@H]2OCCCC[C@H](C)Oc3ccc(NC(=O)c4ccncc4)cc3C(=O)N([C@@H](C)CO)C[C@H]2C)cc1 | inactive
12 | Nc1nc(=S)c2ncn([C@@H]3O[C@H](CO)[C@@H](O)[C@H]3O)c2[nH]1 | inactive
13 | C[C@@H]1CN([C@H](C)CO)C(=O)c2ccccc2-c2ccccc2CO[C@@H]1CN(C)Cc1ccc(C(F)(F)F)cc1 | inactive
14 | C[C@@H]1CN([C@@H](C)CO)C(=O)c2cc(NS(=O)(=O)c3ccc(Cl)cc3)ccc2O[C@@H](C)CCCCO[C@@H]1CN(C)C(=O)Nc1ccccc1 | inactive
15 | C[C@H]1CN([C@@H](C)CO)C(=O)Cc2cc(NS(C)(=O)=O)ccc2O[C@H]1CN(C)C | inactive
16 | COC(=O)c1cccc(NC(=N)N=C(N)N)c1 | inactive
17 | c1cnc(-c2cn[nH]c2)cn1 | inactive
18 | C[C@@H]1CN([C@H](C)CO)C(=O)c2cc(NS(C)(=O)=O)ccc2O[C@H]1CN(C)S(=O)(=O)c1cn(C)cn1 | inactive
19 | CCCC#Cc1ccc2c(c1)O[C@H](CN(C)S(=O)(=O)c1cccc(F)c1)[C@H](C)CN([C@H](C)CO)S2(=O)=O | inactive
20 | C[C@H]1CN([C@@H](C)CO)C(=O)CCCn2cc(nn2)CO[C@H]1CN(C)S(=O)(=O)c1ccc(-c2ccccc2)cc1 | inactive
21 | C[C@@H]1CCCCO[C@H](CN(C)C(=O)NC2CCCCC2)[C@@H](C)CN([C@H](C)CO)C(=O)c2cc(NC(=O)c3ccncc3)ccc2O1 | inactive
22 | CCN1[C@@H]2c3ccc(-c4cccnc4)c(=O)n3C[C@@H]2[C@@H](CO)[C@@H]1C(=O)NCCc1cn(C)cn1 | inactive
23 | OCCNC(=S)c1ccccc1 | inactive
24 | C[C@H]1CN([C@@H](C)CO)C(=O)Cc2cc(NS(=O)(=O)c3ccc(F)cc3)ccc2O[C@H]1CN(C)Cc1ccc(-c2ccccc2)cc1 | active
25 | CCC1OC(=O)C(C)C(=O)C(C)C(OC2OC(C)CC(N(C)C)C2O)C(C)(OC)CC(C)C(=O)C(C)C2N(CCCCn3cnc(-c4cccnc4)c3)C(=O)OC12C (centres undefined) | inactive
26 | CC(C)=CCOc1cc(C)cc2oc(=O)cc(-c3ccccc3)c12 | inactive
27 | CC(C)NC(=O)Nc1ccc2c(c1)CC(=O)N([C@@H](C)CO)C[C@H](C)[C@@H](CN(C)S(=O)(=O)c1cn(C)cn1)O2 | inactive
28 | C[C@@H]1CCCCO[C@H](CN(C)C(=O)CCCN(C)C)[C@@H](C)CN([C@H](C)CO)C(=O)c2cc(NC(=O)Nc3ccc(F)cc3)ccc2O1 | inactive
29 | CC(C)(O)CCC(O)C(C)(O)C1CCC2(O)C3=CC(=O)C4CC(O)C(O)CC4(C)C3CCC12C (centres undefined) | inactive
